# Reference: the supplement of paper PMC6609913
# Where a name gives a salt, the structure may show the parent alone. ± gives the standard deviation of the averaged measurements. Over roughly 1,300 compounds, “normalised cell viability” has its median near 1; the lowest 2% begin near 0.15. The list shows a part of the results.
# Tested on: V-C8 + BRCA2 (BRCA2-proficient hamster cells)
# Assay: normalised cell viability (fraction of plate median); higher = more viable cells (less toxic)
# Settings: 5 µM
# Procedure, shortened: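 Hamster V-C8 cells lacking BRCA2 and V-C8 cells with BRCA2 restored were seeded in 96-well plates. Library drugs (10 mM DMSO stocks) were added 24 h later at 5 μM in 100 μl medium, next to DMSO control wells, for 3 days (screen 1) or 6 days (screen 2). Cell viability was read by resazurin assay, median-plate normalised (modified robust per cent of sample), and triplicate wells were averaged.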
SMILES,normalised cell viability (treatment time: 3 days),normalised cell viability (treatment time: 6 days)
CCN[C@@H](C)Cc1cccc(C(F)(F)F)c1 [Dexfenfluramine hydrochloride],1.02 ± 0.021,1 ± 0.013
C[CH2][Hg][S]c1ccccc1C(=O)[O-].[Na+] [Thimerosal],0.106 ± 0.0062,0.118 ± 0.007
C[C@]12CCC(=O)C=C1CC[C@@H]1[C@@H]2C(=O)C[C@]2(C)C(=O)CC[C@@H]12 [Adrenosterone],1.28 ± 0.097,1.31 ± 0.097
C[N+]1(C)CCOC(O)(c2ccc(-c3ccc(C4(O)C[N+](C)(C)CCO4)cc3)cc2)C1 (stereo unspecified) [Hemicholinium bromide],0.946 ± 0.045,0.977 ± 0.024
O=C(O)CCCc1ccc(N(CCCl)CCCl)cc1 [Chlorambucil],0.924 ± 0.068,0.773 ± 0.19
CC[C@@H](C(N)=O)N1CCCC1=O [Levetiracetam],1.03 ± 0.026,0.987 ± 0.16
COc1ccc(C(=O)N2CCCC2=O)cc1 [Aniracetam],1.06 ± 0.056,1.11 ± 0.086
CCCN1C[C@H](CSC)C[C@@H]2c3cccc4[nH]cc(c34)C[C@H]21 [Pergolide mesylate],1.04 ± 0.038,1.04 ± 0.094
CCC(C)C1O[C@]2(C=C[C@@H]1C)C[C@@H]1CC(C/C=C(\C)[C@@H](OC3C[C@H](OC)[C@@H](OC4C[C@H](OC)[C@@H](O)[C@H](C)O4)[C@H](C)O3)[C@@H](C)/C=C/C=C3\COC4[C@H](O)C(C)=CC(C(=O)O1)[C@]34O)O2 (stereo partly specified) [Avermectin B1a],0.303 ± 0.021,0.193 ± 0.025
COc1ccc(CCN)cc1OC [Homoveratrylamine],1.04 ± 0.037,1.04 ± 0.043
"CC[C@@]1(O)C(=O)OCc2c1cc1n(c2=O)Cc2cc3ccccc3nc2-1 [Camptothecine (S,+)]",0.142 ± 0.014,0.124 ± 0.012
CCC(=O)O[C@@](Cc1ccccc1)(c1ccccc1)[C@@H](C)CN(C)C [Levopropoxyphene napsylate],0.979 ± 0.083,1.058 ± 0.0096
c1ccc2nc(N3CCNCC3)ccc2c1 [Quipazine dimaleate salt],1.07 ± 0.027,0.959 ± 0.034
C[N+](C)(C)CCCCCCCCCC[N+](C)(C)C [Decamethonium bromide],0.946 ± 0.081,1.04 ± 0.041
CN1C[C@H](C(=O)N[C@]2(C)O[C@@]3(O)[C@@H]4CCCN4C(=O)[C@H](Cc4ccccc4)N3C2=O)C[C@@H]2c3cccc4[nH]cc(c34)C[C@H]21 [Dihydroergotamine tartrate],0.974 ± 0.03,1.03 ± 0.072
C[N+]1(C)[C@@H]2CC[C@H]1C[C@@H](OC(=O)C(CO)c1ccccc1)C2 (stereo partly specified) [Methylatropine nitrate],1.05 ± 0.036,1.05 ± 0.12
CC(CCc1ccccc1)NC(C)C(O)c1ccc(O)cc1 (stereo unspecified) [Nylidrin],1.02 ± 0.0065,1.02 ± 0.051
COc1cccc(C2(O)CCCCC2CN(C)C)c1 (stereo unspecified) [Tramadol hydrochloride],1.03 ± 0.05,0.954 ± 0.054
CC(=O)OC1CN2CCC1CC2 (stereo unspecified) [Aceclidine Hydrochloride],1.03 ± 0.012,0.942 ± 0.072
CC(C)N(CCC(C(N)=O)(c1ccccc1)c1ccccn1)C(C)C (stereo unspecified) [Disopyramide],0.975 ± 0.042,1.07 ± 0.12
C[C@H](N)[C@H](O)c1ccc(O)c(O)c1 [Levonordefrin],1.05 ± 0.024,1.01 ± 0.1
O=[N+]([O-])O[C@@H]1CO[C@H]2[C@@H]1OC[C@@H]2O [Isosorbide mononitrate],1.02 ± 0.08,1.02 ± 0.011
CN1[C@@H]2CC[C@H]1C[C@@H](OC(=O)[C@H](CO)c1ccccc1)C2 [Hyoscyamine (L)],0.914 ± 0.081,1 ± 0.04

SMILES,normalised cell viability (treatment time: 3 days),normalised cell viability (treatment time: 6 days)
C[C@]12CC[C@H]3[C@@H](CCC4=CC(=O)CC[C@@H]43)[C@@H]1CC[C@@H]2O [Nandrolone],1.05 ± 0.012,1.03 ± 0.044
COc1ccc(CN2CCNCC2)c(OC)c1OC [Trimetazidine dihydrochloride],1.02 ± 0.039,1.09 ± 0.042
CC(C)CC(N(C)C)C1(c2ccc(Cl)cc2)CCC1 (stereo unspecified) [Sibutramine HCl],0.972 ± 0.022,0.983 ± 0.046
O=c1[nH]c2ccccc2n1CCCN1CCC(n2c(=O)[nH]c3cc(Cl)ccc32)CC1 [Domperidone],1.09 ± 0.094,1.16 ± 0.064
O=C([O-])c1ccccc1-c1c2cc(Br)c(=O)cc-2oc2[c]([Hg+])c([O-])c(Br)cc12.[Na+].[Na+].[OH-] [Merbromin],0.756 ± 0.023,0.642 ± 0.038
CC(C)[N+](C)(CCC(C(N)=O)(c1ccccc1)c1ccccc1)C(C)C [Isopropamide iodide],1.04 ± 0.062,1.02 ± 0.11
C#C[C@]1(O)CC[C@H]2[C@@H]3CCC4=CC(=O)CC[C@]4(C)[C@H]3CC[C@@]21C [Ethisterone],1.09 ± 0.029,1.05 ± 0.021
S=C(NC1CCCCC1)N1CCC(c2cnc[nH]2)CC1 [Thioperamide maleate],1.02 ± 0.02,1.05 ± 0.054
COc1ccc2c(c1)[C@]13CCCC[C@@H]1[C@H](C2)N(C)CC3 [Dextromethorphan hydrobromide monohydrate],1.13 ± 0.078,1.02 ± 0.054
"CNCC(O)c1ccc(O)cc1 (racemic) [(+,-)-Synephrine]",1.01 ± 0.085,1.01 ± 0.022
C[C@]12CC[C@@H](O)C[C@@H]1CC[C@@H]1[C@@H]2CC[C@]2(C)C(=O)CC[C@@H]12 [Androsterone],1.13 ± 0.054,1.09 ± 0.043
C=CC[C@]1(O)CC[C@H]2[C@@H]3CCC4=CC(=O)CCC4=C3C=C[C@@]21C [Altrenogest],0.914 ± 0.02,0.926 ± 0.048
CC(Cc1ccc(O)cc1)NCC(O)c1cc(O)cc(O)c1 (stereo unspecified) [Fenoterol hydrobromide],1.03 ± 0.031,1.1 ± 0.068
C=C1[C@@H]2CC[C@H]3[C@]4(C)C[C@H](O[C@@H]5O[C@H](CO)[C@@H](OS(=O)(=O)O)[C@H](OS(=O)(=O)O)[C@H]5OC(=O)CC(C)C)C[C@@H](C(=O)O)[C@H]4CC[C@]3(C2)[C@@H]1O [Atractyloside potassium salt],1.08 ± 0.093,1.15 ± 0.031
C1CCc2nnnn2CC1 [Pentylenetetrazole],1 ± 0.032,1.02 ± 0.06
CN1CCN(C(=O)OC2c3nccnc3C(=O)N2c2ccc(Cl)cn2)CC1 (stereo unspecified) [Zopiclone],1.06 ± 0.024,1.04 ± 0.054
Clc1ccc(C(OCCN2CCCCC2)c2ccccc2)cc1 (stereo unspecified) [Cloperastine hydrochloride],0.846 ± 0.025,0.853 ± 0.081
C[C@]12CC[C@H](O)C[C@H]1CC[C@@H]1[C@@H]2C[C@@H](O)[C@]2(C)[C@@H](C3=CC(=O)OC3)CC[C@]12O [Digoxigenin],0.962 ± 0.11,0.986 ± 0.056
CC(Cc1ccccc1)NCCC(c1ccccc1)c1ccccc1 (stereo unspecified) [Prenylamine lactate],0.953 ± 0.07,0.886 ± 0.028
CC(=O)NC1CCSC1=O (racemic) [N-Acetyl-DL-homocysteine Thiolactone],1.05 ± 0.096,1.06 ± 0.11
NC(=O)C[S+]([O-])C(c1ccccc1)c1ccccc1 (stereo unspecified) [Modafinil],1.05 ± 0.1,1.07 ± 0.069
Cc1cccc(C)c1NC1=NCCCS1 [Xylazine],1.05 ± 0.046,0.973 ± 0.029
O=P1(NCCCl)OCCCN1CCCl (stereo unspecified) [Ifosfamide],1 ± 0.021,1 ± 0.032

SMILES,normalised cell viability (treatment time: 3 days),normalised cell viability (treatment time: 6 days)
CC(C)c1c(CN(C)C(C)Cc2ccccc2)n(C)n(-c2ccccc2)c1=O (stereo unspecified) [Famprofazone],1 ± 0.079,1.08 ± 0.035
C=C(C)[C@@H]1[C@H]2OC(=O)[C@@H]1[C@]1(O)C[C@H]3O[C@]34C(=O)O[C@H]2[C@]14C [Picrotoxinin],1.13 ± 0.15,1.021 ± 0.0072
COc1cc2c(cc1OC)C(C)NCC2 (stereo unspecified),1.01 ± 0.033,1.03 ± 0.042
NC(=O)CN1CCCC1=O [Piracetam],1.05 ± 0.076,1.02 ± 0.061
CC(=O)OCC(=O)[C@H]1CC[C@H]2[C@@H]3CC[C@H]4C[C@H](O)CC[C@]4(C)[C@H]3C(=O)C[C@]12C [Alfadolone acetate],1.06 ± 0.031,0.9646 ± 0.0091
"CC(=O)OCC1=C(C(=O)O)N2C(=O)[C@@H](N)[C@H]2SC1 [Cephalosporanic acid, 7-amino]",1.02 ± 0.013,1.13 ± 0.051
CO[C@]12C[C@@H](COC(=O)c3cncc(Br)c3)CN(C)[C@@H]1Cc1cn(C)c3cccc2c13 [Nicergoline],0.81 ± 0.019,0.926 ± 0.01
C[N+]12CCC(CC1)C(OC(=O)C(O)(c1ccccc1)c1ccccc1)C2 (stereo unspecified) [Clidinium bromide],1.018 ± 0.0066,1.01 ± 0.061
C[C@@]12N[C@@H](Cc3ccccc31)c1ccccc12 [(-)-MK 801 hydrogen maleate],0.997 ± 0.018,1.02 ± 0.1
C[C@]12Cc3c[nH]nc3C[C@@H]1CC[C@@H]1[C@@H]2CC[C@@]2(C)[C@H]1CC[C@]2(C)O [Stanozolol],1.04 ± 0.039,0.9666 ± 0.0087
CC(C)C[C@H](CN)CC(=O)O [Pregabalin],1.007 ± 0.0072,1.04 ± 0.075
CC(C)(C)NCC(O)c1ccccc1Cl (stereo unspecified) [Tulobuterol],1.033 ± 0.0099,1.02 ± 0.018
COc1cc([C@@H]2c3cc4c(cc3[C@H](O)[C@H]3COC(=O)[C@H]23)OCO4)cc(OC)c1OC [Podophyllotoxin],0.143 ± 0.0046,0.136 ± 0.016
CCNC1(c2cccs2)CCCCC1=O (stereo unspecified) [Tiletamine hydrochloride],1.07 ± 0.04,0.997 ± 0.024
C[C@@H]1CC[C@H]2[C@@H](C)C(=O)O[C@@H]3O[C@@]4(C)CC[C@@H]1[C@]32OO4 [Artemisinin],0.794 ± 0.024,0.87 ± 0.095
CCC1(c2cccc(O)c2)CCCCN(C)C1 (stereo unspecified) [Meptazinol hydrochloride],1.06 ± 0.031,1.06 ± 0.043
CCN(C(C)=O)c1cccc(-c2ccnc3c(C#N)cnn23)c1 [Zaleplon],1.03 ± 0.018,0.987 ± 0.083
NCCc1c[nH]c2ccc(O)cc12 [Serotonin hydrochloride],1.06 ± 0.04,1.05 ± 0.07
CCC(COC(=O)c1cc(OC)c(OC)c(OC)c1)(c1ccccc1)N(C)C (stereo unspecified) [Trimebutine],1.19 ± 0.048,1.23 ± 0.047
COc1ccc(Cc2nccc3cc(OC)c(OC)cc23)cc1OC [Papaverine hydrochloride],0.793 ± 0.032,0.807 ± 0.095
CCC1(CC)C(=O)C=CNC1=O [Pyrithyldione],1.07 ± 0.09,0.962 ± 0.023
CC(C)(C)NCC(O)c1cc(Cl)c(N)c(Cl)c1 (stereo unspecified) [Clenbuterol hydrochloride],1.15 ± 0.022,1.02 ± 0.029
